Measured values as given in article PMC12136788.
The list shows a part of the results.

B1: ENSG00000136451:be:win_351|CDS|ENSG00000136451|bound_else_gene|NA|bound_elsewhere_windowed (ssRNA)
RNA: GGGAGUUCUACAGUCCGACGAUCUACCAUCGCUGGGGACAGCAGCCGAACUUCGUUGGUCUCGACCAUUGCAGGCAUCUUGUCAACAGUCACUACAUCUUCCUCGGGCACCAACCCCAGUAGCAGUGCCAGCACCACAGCUAUCAACAGAGGAUUGAGCAUCA
B2: chr16:14644374:14644495:+|CDS|ENSG00000103429|unk|total|mutant (ssRNA)
RNA: GGGAGUUCUACAGUCCGACGAUCAACACAAUGGACCUUGAGAGAGAUGAACCUCUCAAAAGCACCGGCCCUCAGAUUUCUGUCCGUGAAUUUUCUUGCCACUGCUGCUACGACAUCCUGGUUAACCCCACCACCUUGAACUGUCAACAGAGGAUUGAGCAUCA
B3: chr1:11013840:11013957:+|CDS|ENSG00000120948|unk|total|mutant (ssRNA)
RNA: GGGAGUUCUACAGUCCGACGAUCGGCGUGUGGGCUUCGCUACAGGAAUCCAGUGUCUCAGUGUAUGAGAGGUGUCCGGCUGGCCGAAGGAAUUCUGCAUGCCCCAGAUGCUGGCUGGGGAAAUCUGGUGUAUGUUGUCAACUACAACAGAGGAUUGAGCAUCA
B4: chr17:68278117:68278284:-|CDS|ENSG00000108932|unk|FALSE|unique (ssRNA)
RNA: GGGAGUUCUACAGUCCGACGAUCGCUUUGUUCCAAAGCCAAUGUGUAUACUGAAGUGCCUGAUGGAGGAUGGGGCUGGGCGGUAGCUGUUUCAUUUUUCUUCGUUGAAGUCUUCACCUACGGCAUCAUCAAGACAUUUGGUGUCAACAGAGGAUUGAGCAUCA
B5: chr8:143915815:143915916:-|3pUTR|ENSG00000178209|msi1|total|mutant (ssRNA)
RNA: GGGAGUUCUACAGUCCGACGAUCGCCAGGUGCCUUGGAGGGUCCCAAGCUGGGCCCCAGCCCACCCUCCUGUCUUCCCAGGGCCGCCCGCCUGCCAGUCCCCGCUGCACAGGGCAGCUGGGCCCAACCCUGUCUGCCGAGGGCCAACAGAGGAUUGAGCAUCA
B6: chr7:77779054:77779164:+|CDS|ENSG00000187257|unk|FALSE|unique (ssRNA)
RNA: GGGAGUUCUACAGUCCGACGAUCUAAAUUUGAAAAUAGCAACAAAGAUUUAAAGGAAGAAUUGUGCCCUGGAAAUCUAAGUCUAGUUGAUACAAGGCAACACAGUUCAGCACAUUCAAAUCAAGAUAAAAAAGACGAUGACAUCAACAGAGGAUUGAGCAUCA
B7: chr15:90931683:90931944:-|CDS|ENSG00000184508|control|control|control (ssRNA)
RNA: GGGAGUUCUACAGUCCGACGAUCGACAAGACUCUGCCCAAGCUGGAGAGAAAGAGGCUGCAGGUGGAGCAAGCGCCCCACAGUAGCCCCGGGGCCAAACUGGUGAAGCUGGCAGACAAGCUGUACAAUCUGAGGGACCUGAAUCAACAGAGGAUUGAGCAUCA
B8: chr1:17067826:17067927:-|3pUTR|ENSG00000117115|msi1|FALSE|unique (ssRNA)
RNA: GGGAGUUCUACAGUCCGACGAUCCCAGAUUCAUUCCCUGGCUCCAACUGAAAAGACUCAGUUUCAAUCGUUAAAAGUUCCUUUAGGGCCAGAAGAAUAAAUGAAUUAUAAUCCCAUUUUGAAGAACCGAUUUAUAACCAAUGACAACAGAGGAUUGAGCAUCA
B9: chr7:88197266:88197367:+|3pUTR|ENSG00000008277|unk|total|mutant (ssRNA)
RNA: GGGAGUUCUACAGUCCGACGAUCCAAAACAUGUGAUAUCCCUUUAACCUGUGCACAGUCUGGAGGCAGUUUUAUUGAGUGAGCCGUUGAGUGAGAGAACAAAAUGCCCAGCAAAACUUCUGGCCUCCACAGUUUGCUGAUGCACAACAGAGGAUUGAGCAUCA
B10: chr3:122768741:122768856:-|CDS|ENSG00000169087|unk|FALSE|unique (ssRNA)
RNA: GGGAGUUCUACAGUCCGACGAUCACAUGUAAUUACGUAGAAGCUACACUCGAAGAGUUUCUGACCUGGAACUGUGACCAGUCUAGUAUUUCUGGACCAUUUAGAGAUUAUGACCAUUCCAAGUUCUGGGCUUAUGCUGACUAUCAACAGAGGAUUGAGCAUCA
B11: chr17:75064992:75065093:+|3pUTR|ENSG00000180901|msi1|FALSE|unique (ssRNA)
RNA: GGGAGUUCUACAGUCCGACGAUCAGGCGCUUGUCCCUGUCUGCUUUCCUGGGGCAUGCCUGAUCAGCGUGGGCUGGAGCUCCUAGACCAACCCCAGCUUUCUCACCAGGUUCAGCAAGGAGGCCUGGGGGUCAGACACCAAUGCAACAGAGGAUUGAGCAUCA
B12: chr16:67175568:67175669:+|3pUTR|ENSG00000140939|msi1|total|mutant (ssRNA)
RNA: GGGAGUUCUACAGUCCGACGAUCUCCGAGCUCACAGCCUUGGGAAGUGAGACCCGAAGAGGGGAGCAGAAAGGGACCUUGAGCCGACAAAGGCCACACACAUCAUUGUCAUUACUGUUUUAAUUGUCUGGCUUCUCUCUGGACCAACAGAGGAUUGAGCAUCA
B13: ENSG00000070961:be:win_6251|3pUTR|ENSG00000070961|bound_else_gene|NA|bound_elsewhere_windowed (ssRNA)
RNA: GGGAGUUCUACAGUCCGACGAUCCAUCAUUGCCUUUUUUGUGGUUGUAAAUAGACUUACUUGCACUUUGAAGAUGAGUUACUCCUUGUCAUCUUACAAAUAUGUGAUAUGGUAAUUUUCAUAACAGAUGUCAGUUUUGAACCACAACAGAGGAUUGAGCAUCA
B14: chr2:151248206:151248307:-|3pUTR|ENSG00000184898|msi1|FALSE|unique (ssRNA)
RNA: GGGAGUUCUACAGUCCGACGAUCUUUUUUUAAAGCAAAGAUUAAAUUCCCAUGUAAAACCUUCCUCCCUAUACAAAAAAGAAUAGCAGCAUUUUUAUCUUCAAUGACAAAGAAUUGAGUCCAAGAAAAUACUGUAUAAACCUUCAACAGAGGAUUGAGCAUCA

What follows are binders tested against T1, UNK ZnF1-6 (called full-length) (human, UniProt Q9C0B0 30-357) (assay: nsRBNS (natural sequence RNA bind-n-seq); RBNS binding buffer (assumed for nsRBNS): 25 mM Tris pH 7.5, 150 mM KCl, 3 mM MgCl2, 0.01% Triton X-100, 500 ug/ml BSA, 20 U/ml SUPERase-In, 4 C; UNK is unkempt and MSI1 is Musashi-1; names of the RNAs are library labels; protein concentration not given here; high values mean tight binding).
T1 sequence: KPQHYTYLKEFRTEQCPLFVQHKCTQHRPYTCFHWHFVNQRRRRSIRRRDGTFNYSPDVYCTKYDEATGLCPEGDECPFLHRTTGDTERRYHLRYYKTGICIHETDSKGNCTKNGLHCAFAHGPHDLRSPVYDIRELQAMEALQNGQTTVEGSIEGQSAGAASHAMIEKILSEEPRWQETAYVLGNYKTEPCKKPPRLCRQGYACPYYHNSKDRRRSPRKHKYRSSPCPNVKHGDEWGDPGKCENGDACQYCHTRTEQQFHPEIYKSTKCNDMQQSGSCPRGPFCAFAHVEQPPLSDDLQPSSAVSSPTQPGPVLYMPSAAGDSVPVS

Binder | binding signal [enrichment R]
B1 | 0.685
B2 | 0.73
B3 | 1.09
B4 | 0.822
B5 | 1.04
B6 | 0.676
B7 | 0.675
B8 | 0.557
B9 | 0.634
B10 | 0.406
B11 | 0.765
B12 | 0.831
B13 | 0.405
B14 | 0.487
